# Data taken from a collection of fitness landscapes (doi:10.1126/science.1257360).
# The other results are listed elsewhere or left out.
# B1: PhoQ; a variant is named by its letters at X, in order, P23837 (parent)
# chain: MKKLLRLFFPLSLRVRFLLATAAVVLVLSLAYGMVALIGYSVSFDKTTFRLLRGESNLFYTLAKWENNKLHVELPENIDKQSPTMTLIYDENGQLLWAQRDVPWLMKMIQPDWLKSNGFHEIEADVNDTSLLLSGDHSIQQQLQEVREDDDDAEMTHSVAVNVYPATSRMPKLTIVVVDTIPVELKSSYMVWSWFIYVLSANLLLVIPLLWVAAWWSLRPIEALAKEVRELEEHNRELLNPATTRELTSLVRNLNRLLKSERERYDKYRTTLTDLTHSLKTPLXXLQXXLRSLRSEKMSVSDAEPVMLEQISRISQQIGYYLHRASMRGGTLLSRELHPVAPLLDNLTSALNKVYQRKGVNISLDISPEISFVGEQNDFVEVMGNVLDNACKYCLEFVEISARQTDEHLYIVVEDDGPGIPLSKREVIFDRGQRVDTLRPGQGVGLAVAREITEQYEGKIVAGESMLGGARMEVIFGRQHSAPKDE
# Variants of: B1
# Test: enrichment ratio after two sorts for PhoP signalling (ratio (wild type AVST 3.29)); higher = more functional
# Conditions: with PhoP (E. coli)
row,Variant,enrichment ratio
1,AEMC,6.24
2,VSLL,9.06
3,ENCK,≤ 0.25
4,HRFC,≤ 0.25
5,WYYC,≤ 0.25
6,RQCG,≤ 0.25
7,MHKW,≤ 0.25
8,WLYL,≤ 0.25
9,DCTP,≤ 0.25
10,PCDE,≤ 0.25
11,PFKQ,≤ 0.25
12,GMRM,≤ 0.25
13,KRFQ,≤ 0.25
14,AIPY,≤ 0.25
15,TIYW,≤ 0.25
16,PYDC,≤ 0.25
17,DSWN,≤ 0.25
18,KGHL,≤ 0.25
19,TWNS,≤ 0.25
20,GQCT,10.8
21,MMRQ,≤ 0.25
22,QDFI,≤ 0.25
23,QLWL,≤ 0.25
24,NVDS,≤ 0.25

row,Variant,enrichment ratio
1,MFRL,≤ 0.25
2,IWIE,≤ 0.25
3,REMR,≤ 0.25
4,RWWY,≤ 0.25
5,TSKN,≤ 0.25
6,LYWF,≤ 0.25
7,AWIM,≤ 0.25
8,LHCN,≤ 0.25
9,AFGR,≤ 0.25
10,NCCW,≤ 0.25
11,SAIF,1.39
12,STMD,9.32
13,WDGQ,≤ 0.25
14,DWPR,≤ 0.25
15,EVKQ,≤ 0.25
16,KTTQ,≤ 0.25
17,LVYI,0.646
18,WHLV,≤ 0.25
19,RCNV,≤ 0.25
20,PFTR,≤ 0.25
21,VPRG,≤ 0.25
22,DSNE,≤ 0.25
23,ITQA,≤ 0.25
24,NEHV,≤ 0.25

row,Variant,enrichment ratio
1,RIMY,≤ 0.25
2,IVNK,≤ 0.25
3,QYPQ,≤ 0.25
4,GGLR,≤ 0.25
5,RHCM,≤ 0.25
6,VVVN,≤ 0.25
7,VYHW,≤ 0.25
8,HDTE,≤ 0.25
9,RLHK,≤ 0.25
10,ELNH,≤ 0.25
11,ALQP,≤ 0.25
12,TGHY,3.61
13,NATK,≤ 0.25
14,TTRK,≤ 0.25
15,NHKG,≤ 0.25
16,RGHS,≤ 0.25
17,EPAW,≤ 0.25
18,LQER,≤ 0.25
19,WIVW,≤ 0.25
20,TQYL,1.61
21,QKDP,≤ 0.25
22,WCYQ,≤ 0.25
23,DQQP,≤ 0.25
24,LLCE,≤ 0.25

row,Variant,enrichment ratio
1,TIQN,5.05
2,SMPC,≤ 0.25
3,GTSY,0.487
4,WWYF,≤ 0.25
5,FIAS,≤ 0.25
6,PHDM,≤ 0.25
7,YHIV,≤ 0.25
8,ESEQ,≤ 0.25
9,LSVW,≤ 0.25
10,IWKQ,≤ 0.25
11,LFSP,≤ 0.25
12,RQLF,≤ 0.25
13,PGFD,≤ 0.25
14,QDDN,≤ 0.25
15,SGLH,7.3
16,RVDG,≤ 0.25
17,DLCN,≤ 0.25
18,FWCN,≤ 0.25
19,HDFT,≤ 0.25
20,AAPV,0.52
21,ETGI,≤ 0.25
22,MGLA,2.09
23,HAAR,≤ 0.25
24,FQER,≤ 0.25

row,Variant,enrichment ratio
1,FGEW,≤ 0.25
2,RCSF,≤ 0.25
3,DICL,≤ 0.25
4,PGIP,≤ 0.25
5,FFHR,≤ 0.25
6,WITM,≤ 0.25
7,IFSK,≤ 0.25
8,FCEK,≤ 0.25
9,STGM,4.2
10,YAGH,≤ 0.25
11,TAMN,59.7
12,GGAF,≤ 0.25
13,MYVN,≤ 0.25
14,FGQS,≤ 0.25
15,AAFW,≤ 0.25
16,HGMH,≤ 0.25
17,SIRA,≤ 0.25
18,DSGT,≤ 0.25
19,QATM,≤ 0.25
20,WYHW,≤ 0.25
21,FSRT,≤ 0.25
22,QNDH,≤ 0.25
23,LFYE,≤ 0.25
24,TCPN,≤ 0.25

row,Variant,enrichment ratio
1,WFHT,≤ 0.25
2,ASMA,2.9
3,HPHY,≤ 0.25
4,NQLM,6.38
5,EASC,≤ 0.25
6,HRYW,≤ 0.25
7,IYEP,≤ 0.25
8,AKQR,≤ 0.25
9,WSIN,≤ 0.25
10,NPED,≤ 0.25
11,EVSN,≤ 0.25
12,DLHH,≤ 0.25
13,CLFL,≤ 0.25
14,APDW,≤ 0.25
15,VNMG,≤ 0.25
16,FYAY,≤ 0.25
17,ELQS,≤ 0.25
18,FRMR,≤ 0.25
19,IHEN,≤ 0.25
20,GDRE,≤ 0.25
21,VKEN,≤ 0.25
22,ANLC,22.4
23,MYAG,≤ 0.25
24,TCMR,2.87

row,Variant,enrichment ratio
1,VDQD,≤ 0.25
2,IALR,≤ 0.25
3,FPCC,≤ 0.25
4,FHSS,≤ 0.25
5,SCHH,≤ 0.25
6,QEFP,≤ 0.25
7,AYMM,≤ 0.25
8,YTNP,≤ 0.25
9,LVCC,≤ 0.25
10,DLNE,≤ 0.25
11,FTFY,≤ 0.25
12,RNTN,≤ 0.25
13,RKAR,≤ 0.25
14,TMRL,≤ 0.25
15,FMRK,≤ 0.25
16,RWNV,≤ 0.25
17,EPDW,≤ 0.25
18,PFPL,≤ 0.25
19,WRNI,≤ 0.25
20,AFPM,≤ 0.25
21,PSVP,≤ 0.25
22,HGVH,≤ 0.25
23,TCWC,8.98
24,SQGK,≤ 0.25

row,Variant,enrichment ratio
1,STQY,1.13
2,FQPC,≤ 0.25
3,YRRG,≤ 0.25
4,HTVF,≤ 0.25
5,LNRM,≤ 0.25
6,VIAN,≤ 0.25
7,HVTI,≤ 0.25
8,PAHT,≤ 0.25
9,LIAT,≤ 0.25
10,HRPR,≤ 0.25
11,HEST,≤ 0.25
12,NWDP,≤ 0.25
13,VFTQ,≤ 0.25
14,VTYR,≤ 0.25
15,KLHQ,≤ 0.25
16,MIWV,≤ 0.25
17,MGGT,9.95
18,QFQP,≤ 0.25
19,PAGE,≤ 0.25
20,WHIM,≤ 0.25
21,FRFY,≤ 0.25
22,CMYV,≤ 0.25
23,WKRQ,≤ 0.25
24,SFWS,≤ 0.25

row,Variant,enrichment ratio
1,FTFH,≤ 0.25
2,LNVV,≤ 0.25
3,TQPV,≤ 0.25
4,LCMQ,≤ 0.25
5,EGHM,≤ 0.25
6,SLHF,≤ 0.25
7,HYAQ,≤ 0.25
8,MTPY,≤ 0.25
9,HFQI,≤ 0.25
10,PLMT,≤ 0.25
11,VDYF,≤ 0.25
12,SNIK,≤ 0.25
13,WDKM,≤ 0.25
14,MTQM,≤ 0.25
15,YVNP,≤ 0.25
16,TPQV,≤ 0.25
17,MIWC,≤ 0.25
18,RFMQ,≤ 0.25
19,YWSP,≤ 0.25
20,LWDD,≤ 0.25
21,HNWV,≤ 0.25
22,VWHN,≤ 0.25
23,QCFW,≤ 0.25
24,RTHP,≤ 0.25

row,Variant,enrichment ratio
1,VGVD,≤ 0.25
2,QWWD,≤ 0.25
3,NSFF,≤ 0.25
4,ASEG,≤ 0.25
5,QELQ,≤ 0.25
6,KQID,≤ 0.25
7,RREV,≤ 0.25
8,DYKC,≤ 0.25
9,KDWR,≤ 0.25
10,AFIM,≤ 0.25
11,PYFD,≤ 0.25
12,IMVD,≤ 0.25
13,FDYQ,≤ 0.25
14,YFID,≤ 0.25
15,IWLY,≤ 0.25
16,TPQA,≤ 0.25
17,RVPC,≤ 0.25
18,SWAW,≤ 0.25
19,ASMN,19.6
20,RGFI,≤ 0.25
21,EFAV,≤ 0.25
22,SLGH,0.692
23,HECF,≤ 0.25
24,NDKT,≤ 0.25

row,Variant,enrichment ratio
1,WAWH,≤ 0.25
2,RTGP,≤ 0.25
3,GKDW,≤ 0.25
4,HVQV,≤ 0.25
5,PITE,≤ 0.25
6,LLQC,≤ 0.25
7,ANNC,≤ 0.25
8,VNRI,≤ 0.25
9,KMCW,≤ 0.25
10,KGLC,≤ 0.25
11,HMNY,≤ 0.25
12,NRQW,≤ 0.25
13,VDGP,≤ 0.25
14,DWYM,≤ 0.25
15,QDSQ,≤ 0.25
16,GTMQ,≤ 0.25
17,WFKW,≤ 0.25
18,FVLY,1.57
19,SQPR,≤ 0.25
20,PMLV,≤ 0.25
21,ALLK,1.91
22,TSHH,8.77
23,GLDG,≤ 0.25
24,VMHF,≤ 0.25

row,Variant,enrichment ratio
1,REVW,≤ 0.25
2,MEAP,≤ 0.25
3,VLLR,≤ 0.25
4,IRDA,≤ 0.25
5,NNVP,≤ 0.25
6,LDSE,≤ 0.25
7,AFRK,≤ 0.25
8,FYIW,≤ 0.25
9,NPPC,≤ 0.25
10,YQAW,≤ 0.25
11,VQSH,≤ 0.25
12,ARWV,≤ 0.25
13,TGQK,≤ 0.25
14,MKCV,≤ 0.25
15,GCRT,≤ 0.25
16,MMRK,≤ 0.25
17,KKFP,≤ 0.25
18,MVER,≤ 0.25
19,KLCY,≤ 0.25
20,PFRQ,≤ 0.25
21,QYPT,≤ 0.25
22,DQSW,≤ 0.25
23,WHRD,≤ 0.25
24,MPQP,≤ 0.25

row,Variant,enrichment ratio
1,WSMP,≤ 0.25
2,DVAK,≤ 0.25
3,HLWD,≤ 0.25
4,FSPT,≤ 0.25
5,INKA,≤ 0.25
6,ENPS,≤ 0.25
7,FCPP,≤ 0.25
8,QQRF,≤ 0.25
9,MKDR,≤ 0.25
10,RPPP,≤ 0.25
11,TCSL,16.4
12,RLAY,≤ 0.25
13,NWHK,≤ 0.25
14,KNTS,≤ 0.25
15,VSSP,≤ 0.25
16,IITR,≤ 0.25
17,LFWY,≤ 0.25
18,HHQW,≤ 0.25
